Drawing on a collection of fitness landscapes (doi:10.1126/science.1257360), this text covers enrichment ratio for 153 variants.

This is one part of the list.

Sequences and labels used below:
B1: PhoQ; a variant is named by its letters at X, in order, P23837 (parent)
chain: MKKLLRLFFPLSLRVRFLLATAAVVLVLSLAYGMVALIGYSVSFDKTTFRLLRGESNLFYTLAKWENNKLHVELPENIDKQSPTMTLIYDENGQLLWAQRDVPWLMKMIQPDWLKSNGFHEIEADVNDTSLLLSGDHSIQQQLQEVREDDDDAEMTHSVAVNVYPATSRMPKLTIVVVDTIPVELKSSYMVWSWFIYVLSANLLLVIPLLWVAAWWSLRPIEALAKEVRELEEHNRELLNPATTRELTSLVRNLNRLLKSERERYDKYRTTLTDLTHSLKTPLXXLQXXLRSLRSEKMSVSDAEPVMLEQISRISQQIGYYLHRASMRGGTLLSRELHPVAPLLDNLTSALNKVYQRKGVNISLDISPEISFVGEQNDFVEVMGNVLDNACKYCLEFVEISARQTDEHLYIVVEDDGPGIPLSKREVIFDRGQRVDTLRPGQGVGLAVAREITEQYEGKIVAGESMLGGARMEVIFGRQHSAPKDE

The variants in the assay derive from B1. Nature of the assay: enrichment ratio after two sorts for PhoP signalling (ratio (wild type AVST 3.29)); higher = more functional. The following applies: with PhoP (E. coli).
Take LCGF: the enrichment ratio is no more than 0.25.
To TCID belongs no more than 0.25; to TNRI, no more than 0.25; to TWPT, no more than 0.25.
On to QGGA, for which the enrichment ratio was no more than 0.25.
To GADV belongs no more than 0.25.
To GNYN belongs no more than 0.25; to IGAW, no more than 0.25.
Turning to EFYT, the enrichment ratio is no more than 0.25.
To WMRQ belongs no more than 0.25; to NCGL, 0.353; to DSII, no more than 0.25.
On to IAWW, for which the enrichment ratio was no more than 0.25.
To NGLC belongs 0.474.
To QNMY belongs no more than 0.25.
As for KGHK, the figure is no more than 0.25; as for MTAD, no more than 0.25; as for NYTT, no more than 0.25.
Regarding HNNM, the enrichment ratio is no more than 0.25.
As for GERY, the enrichment ratio is no more than 0.25.
As for FFEE, the enrichment ratio was no more than 0.25.
To KYCY belongs no more than 0.25.
To RQKG belongs no more than 0.25.
Take QVFM: the enrichment ratio is no more than 0.25.
Consider NKQH, for which the enrichment ratio is no more than 0.25.
To SFQN belongs no more than 0.25.
To VCKV belongs no more than 0.25.
To KEHP belongs no more than 0.25.
Turning to LDQW, the enrichment ratio was no more than 0.25.
As for MYWH, the figure is no more than 0.25; as for HNQR, no more than 0.25.
Turning to WKTQ, the enrichment ratio was no more than 0.25.
Take TQAW: the enrichment ratio is no more than 0.25.
To PNQR belongs no more than 0.25; to WIVF, no more than 0.25.
Take SNCA: the enrichment ratio turned out to be 16.8.
As to MCYH, the enrichment ratio turned out to be 1.48.
To PVAK belongs no more than 0.25; to VYYT, no more than 0.25.
As for TKRY, the figure is no more than 0.25; as for PWQL, 0.791.
To FWDK belongs no more than 0.25; to SEEL, no more than 0.25; to TYHY, 0.35.
Turning to VRRS, the enrichment ratio was no more than 0.25.
To ARPL belongs no more than 0.25.
To LRQW belongs no more than 0.25; to WMYY, no more than 0.25.
As for TRME, the figure is no more than 0.25; as for PPGD, no more than 0.25; as for ELDY, no more than 0.25.
For RFNS, the enrichment ratio was no more than 0.25.
For TSMV, the enrichment ratio amounted to 19.3.
To KTQL belongs no more than 0.25; to HNRW, no more than 0.25; to MQVR, no more than 0.25.
To PMQW belongs no more than 0.25; to YNPT, no more than 0.25; to VFMV, no more than 0.25.
As for SIIE, the enrichment ratio was no more than 0.25.
On to TEMS, for which the enrichment ratio turned out to be 11.4.
FGGA: the enrichment ratio was no more than 0.25.
Consider IDQA, for which the enrichment ratio is no more than 0.25.
For the variant PKFF, the enrichment ratio was no more than 0.25.
For SHMI, the enrichment ratio stood at 5.85.
As for SMHE, the enrichment ratio was no more than 0.25.
As for IGKA, the figure is no more than 0.25; as for SWPF, no more than 0.25; as for YDIK, no more than 0.25.
To SNPD belongs no more than 0.25.
As for MPCG, the figure is no more than 0.25.
Turning to YRQE, the enrichment ratio was no more than 0.25.
As to QKYG, the enrichment ratio was no more than 0.25.
Regarding IAIL, the enrichment ratio is no more than 0.25.
As for SRSD, the figure is no more than 0.25.
Regarding SDAT, the enrichment ratio was found to be 1.34.
Regarding GHKD, the enrichment ratio is no more than 0.25.
Consider DYLK, for which the enrichment ratio was no more than 0.25.
To GKGA belongs no more than 0.25.
For the variant SYNH, the enrichment ratio was no more than 0.25.
To FSLE belongs 8.25.
Take VTED: the enrichment ratio is no more than 0.25.
With YILK, the enrichment ratio is no more than 0.25.
As for EGET, the enrichment ratio is no more than 0.25.
Turning to SHTV, the enrichment ratio worked out at 0.811.
To SLIN belongs no more than 0.25; to RAQD, no more than 0.25.
As for KCFK, the enrichment ratio is no more than 0.25.
As for VDLA, the figure is no more than 0.25.
To NSTL belongs no more than 0.25; to NGQQ, no more than 0.25.
On to HNKQ, for which the enrichment ratio is no more than 0.25.
As for KMYH, the figure is no more than 0.25; as for AIWT, no more than 0.25.
To MILF belongs 2.03.
To GKIY belongs no more than 0.25; to MPSP, no more than 0.25; to AWGP, no more than 0.25.
With NRLP, the enrichment ratio was no more than 0.25.
To VGNY belongs no more than 0.25.
As for YEHD, the figure is no more than 0.25.
As for KWLI, the figure is no more than 0.25; as for KKIM, no more than 0.25; as for FQKG, no more than 0.25.
For the variant IGMM, the enrichment ratio was 18.5.
As for SMYK, the figure is no more than 0.25.
FVFR: the enrichment ratio was no more than 0.25.
For the variant LTMA, the enrichment ratio is no more than 0.25.
Turning to TSGE, the enrichment ratio is no more than 0.25.
As for AWND, the figure is no more than 0.25; as for KEFW, no more than 0.25.
To IWHN belongs no more than 0.25; to PCRD, no more than 0.25; to AHAP, no more than 0.25.
As for QASP, the figure is no more than 0.25.
With MWHV, the enrichment ratio is no more than 0.25.
Regarding RPFL, the enrichment ratio is no more than 0.25.
To FCMC belongs no more than 0.25; to ACGC, 2.62.
To LNRI belongs no more than 0.25; to RDWF, no more than 0.25; to EEMC, no more than 0.25.
With MSNP, the enrichment ratio is no more than 0.25.
As to WYWV, the enrichment ratio is no more than 0.25.
To EYPP belongs no more than 0.25; to YIAG, 0.441; to MIRT, no more than 0.25.
To ICKD belongs no more than 0.25; to QQKI, no more than 0.25; to QWVF, no more than 0.25.
To PCIS belongs no more than 0.25; to VRQT, no more than 0.25.
As for NRHI, the enrichment ratio was no more than 0.25.
To VGYI belongs no more than 0.25.
Regarding TNTS, the enrichment ratio stood at 13.4.
As for SATW, the figure is no more than 0.25; as for GMGY, no more than 0.25; as for LPTQ, no more than 0.25.
To NPWK belongs no more than 0.25.
To VKYI belongs no more than 0.25; to HSRP, no more than 0.25; to NICD, no more than 0.25.
In the case of PCMH, the enrichment ratio is no more than 0.25.
To SICA belongs 8.12; to VPRM, no more than 0.25; to MHCW, no more than 0.25.
To FCWT belongs no more than 0.25; to PPEN, no more than 0.25.
To MTFP belongs no more than 0.25; to MNTY, no more than 0.25; to AHNY, no more than 0.25.
On to LPHH, for which the enrichment ratio is no more than 0.25.
To TWPH belongs no more than 0.25.
